Assay results: PubChem BioAssay AID1460 (National Center for Advancing Translational Sciences (NCATS), 2008)
Among all 270,000 compounds or so, about 5,800 (2.1%) were called active. This list was built around the results that the source calls inconclusive (neither active nor inactive); the mix of calls is not that of the screen. Calls come from the whole dose curve; as a rule, active = well fitted inhibition curve with a large enough effect; inconclusive = small, poorly fitted or top-dose-only effect; inactive = flat fitted curve, though single readings scatter. A potency beside an inconclusive call is a rough fit, not a confirmed value.
Note: nearly all actives have a fitted effect of over 55% in size.
Potency is the fitted concentration of half-maximal effect; tags give direction and shape of the fitted curve.

The compounds below were run against Microtubule-associated protein tau (Homo sapiens) (UniProt P10636) (assay: qHTS for Inhibitors of Tau Fibril Formation, Thioflavin T Binding). Conditions: recombinant tau K18 P301L (four-repeat tau fragment), heparin-induced fibrillization, ThT fluorescence; series mostly up to 57.4 µM.
UniProt P10636, sequence (P10636 whole entry, looked up, the tested form may be a part): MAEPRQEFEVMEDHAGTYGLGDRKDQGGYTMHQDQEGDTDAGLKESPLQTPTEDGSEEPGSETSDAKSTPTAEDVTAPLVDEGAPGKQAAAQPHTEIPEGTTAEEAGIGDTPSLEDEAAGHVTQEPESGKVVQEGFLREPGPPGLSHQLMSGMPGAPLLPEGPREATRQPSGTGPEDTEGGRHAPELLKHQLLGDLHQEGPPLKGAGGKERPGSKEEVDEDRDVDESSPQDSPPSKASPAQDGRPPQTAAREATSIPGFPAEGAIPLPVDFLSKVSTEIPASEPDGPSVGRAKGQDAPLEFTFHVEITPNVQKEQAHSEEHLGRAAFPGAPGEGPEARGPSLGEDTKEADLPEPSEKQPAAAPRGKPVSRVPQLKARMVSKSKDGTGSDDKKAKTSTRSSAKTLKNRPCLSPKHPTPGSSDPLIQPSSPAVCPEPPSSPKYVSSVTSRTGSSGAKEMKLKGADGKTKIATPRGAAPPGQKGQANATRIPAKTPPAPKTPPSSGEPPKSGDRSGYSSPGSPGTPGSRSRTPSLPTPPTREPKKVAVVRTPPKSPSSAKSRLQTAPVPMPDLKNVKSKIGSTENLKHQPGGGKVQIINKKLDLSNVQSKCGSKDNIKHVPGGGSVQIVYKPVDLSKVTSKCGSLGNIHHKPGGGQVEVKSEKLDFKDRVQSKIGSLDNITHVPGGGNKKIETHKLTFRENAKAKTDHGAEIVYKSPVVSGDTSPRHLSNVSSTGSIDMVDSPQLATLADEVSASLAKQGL
Procedure, shortened: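 In this qHTS, human K18 P301L tau is incubated with compound and heparin for 6 hr at 37 C, and Thioflavin T fluorescence then reports fibril load.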
In the case of O=C(CCC(=O)OCC(=O)c1ccc([N+](=O)[O-])cc1)NC1CCCCC1, the Potency was inconclusive: 28.2 µM [inhibitor, partial curve].
CCCCOc1ccc(/C=C/C2=CC(C)(C)NC(=S)N2)cc1OCC was tested, and the Potency was “inactive”.
In the case of CCOC(=O)c1c(NC(=O)CSc2nnnn2C)sc(CC)c1C, the Potency was inconclusive: 28.2 µM [inhibitor, single point].
For CN(C)c1ccc(/C=N\NC(=O)c2csnn2)cc1, the Potency was inconclusive: 20 µM [inhibitor, partial curve].
C/C(CC(=O)Nc1ccc(N(C)C)cc1)=N\NC(=O)c1ccccn1 was tested, and the Potency was inconclusive: 15.8 µM [inhibitor, partial curve].
Cc1c(-c2ccc(Cl)cc2)c(=O)oc2c(CN3CCN(CCO)CC3)c(O)ccc12 was tested, and the Potency was “inactive”.
With O=C(c1cc2ccccc2c(=O)o1)N1CCc2ccccc2C1 the Potency was “inactive”.
With COc1cc2c(cc1NC(=O)CSc1nnc(Cc3cccs3)n1C)oc1ccccc12 the Potency was inconclusive: 39.8 µM [inhibitor, partial curve].
Cc1ccc(Cn2c(=O)n(-c3ccc(C)cc3)c(=O)c3c2c2cc(C)ccc2n3C)cc1 was tested, and the Potency was “inactive”.
In the case of COc1ccc(/C(C)=N/Nc2nc3ccccc3n3cnnc23)cc1OC, the Potency was inconclusive: 22.4 µM [inhibitor, partial curve].
In the case of CCOc1ccccc1NS(=O)(=O)c1ccc2[nH]c3c(c2c1)CCCCC3, the Potency was “inactive”.
In the case of COC(=O)c1ccc(NC(=O)CN2CCN(S(=O)(=O)c3ccc(Br)cc3)CC2)cc1, the Potency was “inactive”.
CC1CCCN(c2nc3c(S(=O)(=O)c4ccc(C(C)C)cc4)nnn3c3ccsc23)C1 (centres undefined) was tested, and the Potency was “inactive”.
In the case of COCCNC(=O)/C(C#N)=C/c1ccc(N2CCOCC2)o1, the Potency was inconclusive: 15.8 µM [inhibitor, partial curve].
For O=c1oc2c(-c3cccc(F)c3)cc(O)cc2s1, the Potency was inconclusive: 25.1 µM [inhibitor, partial curve].
In the case of Cc1ccc2nc(-c3ccccc3N)[nH]c2c1, the Potency was inconclusive: 11.2 µM [inhibitor, partial curve].
For CCCC[n+]1ccn(-c2nc3ccccc3nc2[N-]S(=O)(=O)c2cccs2)c1, the Potency was inconclusive: 39.8 µM [inhibitor, single point].
For CCOc1cc(C(=S)N2CCCCC2)ccc1OS(=O)(=O)c1ccc(Cl)cc1, the Potency was “inactive”.
For COc1ccc(OC)c(NC(=O)CSc2nnc(CNc3ccc(C)cc3C)o2)c1, the Potency was inconclusive: 15.8 µM [inhibitor, partial curve, poor fit].
For Cc1ccc2c(c1)COc1c3ccc(C(=O)N4CCOCC4)cc3nn1-2, the Potency was inconclusive: 28.2 µM [inhibitor, single point].
For O=c1[nH][nH]c(=S)n1C1CCCCC1, the Potency was active: 31.6 µM.
In the case of Cc1nc(N2CCOCC2)nc(N2CCN(c3ccccc3)CC2)c1[N+](=O)[O-], the Potency was inconclusive: 10 µM [inhibitor, partial curve].
In the case of O=c1oc2ccccc2cc1-c1cn2cccnc2n1, the Potency was inconclusive: 28.2 µM [inhibitor, partial curve].
Cc1ccc(-c2nc3c(C)cccn3c2Nc2ccccc2C)s1 was tested, and the Potency was inconclusive: 35.5 µM [inhibitor, single point].
With Clc1ccc(-c2cn3c(n2)SCC3)cc1 the Potency was inconclusive: 35.5 µM [inhibitor, partial curve].
N#Cc1c(NC(=O)Cn2c(=O)oc3ccccc32)oc(-c2ccccc2)c1-c1ccccc1 was tested, and the Potency was “inactive”.
CC1(C(=O)NCc2ccc(Cl)c(Cl)c2)Oc2ccccc2NC1=O (centres undefined) was tested, and the Potency was “inactive”.
In the case of COc1ccc(C(=O)Nc2ccc(O)cc2C(=O)O)cc1, the Potency was inconclusive: 25.1 µM [inhibitor, single point].
CCN(CCCNC(=O)c1ccc(Sc2ccc(F)cc2)c(NC(C)=O)c1)c1ccccc1 was tested, and the Potency was “inactive”.
For Cc1csc(SC(C)c2nc3scc(-c4ccccc4)c3c(=O)[nH]2)n1 (centres undefined), the Potency was inconclusive: 31.6 µM [inhibitor, partial curve, poor fit].
For Cc1c(Cl)cccc1NC(=O)C1CCCN(c2nnc(-n3c(C)ccc3C)s2)C1 (centres undefined), the Potency was inconclusive: 28.2 µM [inhibitor, partial curve].
COc1ccc(-c2c(C#N)c(N)nc3c2CCc2ccccc2-3)cc1OC was tested, and the Potency was inconclusive: 14.1 µM [inhibitor, partial curve].
With O=c1[nH]c2cc3c(cc2cc1CN(Cc1nnnn1CC1CCCO1)C1CCCC1)OCO3 (centres undefined) the Potency was inconclusive: 10 µM [inhibitor, partial curve, poor fit].
Cc1oc(=O)c(NC(=O)c2cccc(Cl)c2)cc1C(=O)c1ccccc1 was tested, and the Potency was inconclusive: 15.8 µM [inhibitor, partial curve].
With O=[N+]([O-])c1ccccc1/C=N/N1CCN(c2ccncc2S(=O)(=O)N2CCCCC2)CC1 the Potency was inconclusive: 22.4 µM [inhibitor, single point].
With S=c1[nH]nc(-c2ccc(Cl)cc2Cl)n1-c1ccc2c(c1)OCCO2 the Potency was inconclusive: 28.2 µM [inhibitor, single point].
For CC(C)(C)C(=O)O/N=C1/C(=O)N(c2ccccc2)c2ccccc21, the Potency was inconclusive: 25.1 µM [inhibitor, partial curve, poor fit].
With CC(Cl)C(=O)NN=C(c1ccccc1)c1ccccc1 (centres undefined) the Potency was “inactive”.
CCOC(=O)COc1nc(-c2ccco2)cc(-c2ccco2)c1C#N was tested, and the Potency was inconclusive: 11.2 µM [inhibitor, partial curve].
With COc1cccc(/C=N/NC(=O)C(C)n2nnc3ccccc32)c1 (centres undefined) the Potency was “inactive”.
In the case of COc1cc(C2C(C#N)=C(N)Oc3cc(N(C)C)ccc32)cc2c1OCO2 (centres undefined), the Potency was inconclusive: 39.8 µM [inhibitor, single point].
CCOC(=O)N1CCN(Cc2ccccc2Cl)CC1 was tested, and the Potency was “inactive”.
CN1C(=O)Cc2cc(S(=O)(=O)N3CCN(c4cccc(C(F)(F)F)c4)CC3)ccc21 was tested, and the Potency was “inactive”.
In the case of Cc1ccc(C)c(NC(=O)c2nc(S(C)(=O)=O)ncc2N(Cc2ccc(C(C)(C)C)cc2)Cc2ccco2)c1, the Potency was inconclusive: 35.5 µM [inhibitor, single point].
With Cc1ccccc1CNC(=O)Cn1ccc2cc(S(=O)(=O)N3CCCCC3)ccc21 the Potency was inconclusive: 39.8 µM [inhibitor, single point].
For COc1ccc(Cl)cc1NC(=O)CN(C)C(C)C(=O)NCC1CCCCC1 (centres undefined), the Potency was “inactive”.
For CCC(C)n1ncn(-c2ccc(N3CCN(c4ccc(OC)cc4)CC3)cc2)c1=O (centres undefined), the Potency was inconclusive: 1.12 µM [inhibitor, partial curve].
In the case of CC(C)CCOc1ccc(/C=C2\CCn3c2nc2cc(C(=O)O)ccc2c3=O)cc1, the Potency was inconclusive: 14.1 µM [inhibitor, partial curve].
In the case of CCOc1ccc(C(=O)c2cn(CC(=O)Nc3ccc4c(c3)OCCO4)c3ccc(OC)cc3c2=O)cc1, the Potency was “inactive”.
In the case of CCCCCCCC/C=C\CCCCCCCC(=O)NCc1ccc(O)c(OC)c1, the Potency was inconclusive: 3.55 µM [inhibitor, partial curve].
In the case of Nc1ccc2nc(-c3cc(Cl)c(N)c(Cl)c3)[nH]c2c1, the Potency was active: 14.1 µM.
With N#Cc1ccccc1NC(=O)CSc1ncn[nH]1 the Potency was “inactive”.
For Brc1ccc(-c2csc(Nc3nc(-c4ccc(Br)cc4)cs3)n2)cc1, the Potency was inconclusive: 7.94 µM [inhibitor, partial curve].
In the case of Cc1cccc(NC(=O)c2cnc3sccn3c2=O)c1C, the Potency was inconclusive: 17.8 µM [inhibitor, partial curve].
With O=c1oc2ccccc2c(Nc2ccc(F)cc2)c1[N+](=O)[O-] the Potency was inconclusive: 35.5 µM [inhibitor, single point].
For COc1ccc(O)c(C(=O)/C=C/c2cc3ccccc3o2)c1, the Potency was inconclusive: 5.01 µM [inhibitor, full curve].
For O=C(Nc1ccc(-c2nc3cc(NC(=O)c4ccccc4F)ccc3o2)cc1)c1ccccc1F, the Potency was inconclusive: 1 µM [inhibitor, full curve].
For CCOC(=O)c1c(C)nc2sc(C(N)=O)c(N)c2c1-c1ccccc1, the Potency was inconclusive: 14.1 µM [inhibitor, partial curve].
In the case of O=c1[nH]c(CN2CCN(c3ccc([N+](=O)[O-])cc3)CC2)nc2ccsc12, the Potency was inconclusive: 15.8 µM [inhibitor, partial curve].
With BrCCOCCOc1ccc2ccccc2c1 the Potency was inconclusive: 14.1 µM [inhibitor, partial curve, poor fit].
In the case of COc1ccc(N2CCN(c3cc(C)c4ccc(C)cc4n3)CC2)cc1, the Potency was inconclusive: 10 µM [inhibitor, partial curve].
For Cc1cccc(NC(=O)Cn2cc(C(=O)C3CCCCC3)c3ccccc32)c1C, the Potency was “inactive”.
COC(=O)c1ccc(C(=O)OC)c(NC(=O)CN(C)Cc2cccc(Cl)c2Cl)c1 was tested, and the Potency was inconclusive: 39.8 µM [inhibitor, single point].
CCOC(=O)c1ccc(Nc2nc3nonc3nc2Nc2cccc(C)c2C)cc1 was tested, and the Potency was inconclusive: 3.55 µM [inhibitor, full curve, poor fit].
CCN(CC)c1ccc2cc(-c3nc(-c4ccc(Cl)cc4Cl)cs3)c(=O)oc2c1 was tested, and the Potency was inconclusive: 17.8 µM [activator, partial curve].
In the case of COc1ccccc1NC(=O)Cn1c(=O)n(Cc2cccs2)c(=O)c2cccnc21, the Potency was “inactive”.
O=C(Cn1cc(SCc2ccccc2F)c2ccccc21)N1CCCCCC1 was tested, and the Potency was inconclusive: 31.6 µM [inhibitor, single point].
With CCOC(=O)c1c(C)n(OCc2ccccc2)c2ccc3nonc3c12 the Potency was “inactive”.
With S=C(Nc1ccc(Nc2ccccc2)cc1)N1CCN(c2ncccn2)CC1 the Potency was inconclusive: 2.51 µM [inhibitor, full curve].
